The values below come from publication PMC11074830.

Chains of the proteins cited; added tags and fusions are not shown.
UniProt Q96GD4: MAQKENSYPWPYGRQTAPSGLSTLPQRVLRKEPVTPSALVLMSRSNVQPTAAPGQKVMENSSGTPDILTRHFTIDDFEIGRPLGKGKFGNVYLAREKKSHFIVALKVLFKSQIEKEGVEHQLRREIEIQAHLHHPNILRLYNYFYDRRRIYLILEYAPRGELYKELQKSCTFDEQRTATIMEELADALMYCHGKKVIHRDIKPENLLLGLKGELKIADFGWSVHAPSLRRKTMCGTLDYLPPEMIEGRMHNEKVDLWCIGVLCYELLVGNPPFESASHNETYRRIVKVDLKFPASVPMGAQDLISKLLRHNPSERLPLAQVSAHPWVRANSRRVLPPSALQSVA
UniProt P53350: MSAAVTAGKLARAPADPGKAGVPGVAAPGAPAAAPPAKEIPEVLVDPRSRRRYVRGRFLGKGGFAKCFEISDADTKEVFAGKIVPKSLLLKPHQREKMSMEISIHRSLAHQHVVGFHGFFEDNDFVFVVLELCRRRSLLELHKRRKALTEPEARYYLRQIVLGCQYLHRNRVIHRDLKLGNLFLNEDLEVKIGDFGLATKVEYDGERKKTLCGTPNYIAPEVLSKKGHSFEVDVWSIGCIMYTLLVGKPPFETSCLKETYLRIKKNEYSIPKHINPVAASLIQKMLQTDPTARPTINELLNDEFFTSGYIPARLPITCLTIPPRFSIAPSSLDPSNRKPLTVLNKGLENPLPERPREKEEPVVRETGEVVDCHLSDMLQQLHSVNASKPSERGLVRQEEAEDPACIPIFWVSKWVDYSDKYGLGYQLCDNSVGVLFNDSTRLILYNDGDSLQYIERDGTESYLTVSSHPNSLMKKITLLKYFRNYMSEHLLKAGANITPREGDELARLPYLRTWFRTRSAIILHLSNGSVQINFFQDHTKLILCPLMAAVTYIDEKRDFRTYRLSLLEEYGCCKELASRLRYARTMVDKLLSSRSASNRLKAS

For one experiment, the target named is T1, GST-Elk-1 (1-93) (UniProt P19419).
T1 sequence: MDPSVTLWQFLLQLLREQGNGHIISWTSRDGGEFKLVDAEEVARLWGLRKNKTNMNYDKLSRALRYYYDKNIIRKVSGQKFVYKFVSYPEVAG
The experiment in a line: pull-down; GST or GST-Elk-1 deletions semipurified on glutathione-sepharose beads, incubated with U87 glioblastoma cell lysates; Western blot for Aur-A, Aur-B, Cdk1, Plk1, ERK, SRF; only the target purified.

The target in the next experiment is T2, GST-Elk-1 (349-428) (UniProt P19419).
T2 sequence: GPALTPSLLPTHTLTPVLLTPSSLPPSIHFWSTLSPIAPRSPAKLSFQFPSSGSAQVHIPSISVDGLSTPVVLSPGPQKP
Described as above.

The target in a further experiment is T3, GST-Elk-1 (1-205) (UniProt P19419).
T3 sequence: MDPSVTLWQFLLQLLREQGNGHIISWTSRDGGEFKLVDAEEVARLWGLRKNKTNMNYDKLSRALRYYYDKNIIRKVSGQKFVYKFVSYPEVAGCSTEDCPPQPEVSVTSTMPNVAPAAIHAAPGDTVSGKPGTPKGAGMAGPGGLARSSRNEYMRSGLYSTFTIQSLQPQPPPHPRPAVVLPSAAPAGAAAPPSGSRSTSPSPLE
The experiment is described as above.

The target in experiment [1] is T4, Elk-1 transcription factor (endogenous) (human (endogenous in SH-SY5Y and U87)) (UniProt P19419).
T4 sequence: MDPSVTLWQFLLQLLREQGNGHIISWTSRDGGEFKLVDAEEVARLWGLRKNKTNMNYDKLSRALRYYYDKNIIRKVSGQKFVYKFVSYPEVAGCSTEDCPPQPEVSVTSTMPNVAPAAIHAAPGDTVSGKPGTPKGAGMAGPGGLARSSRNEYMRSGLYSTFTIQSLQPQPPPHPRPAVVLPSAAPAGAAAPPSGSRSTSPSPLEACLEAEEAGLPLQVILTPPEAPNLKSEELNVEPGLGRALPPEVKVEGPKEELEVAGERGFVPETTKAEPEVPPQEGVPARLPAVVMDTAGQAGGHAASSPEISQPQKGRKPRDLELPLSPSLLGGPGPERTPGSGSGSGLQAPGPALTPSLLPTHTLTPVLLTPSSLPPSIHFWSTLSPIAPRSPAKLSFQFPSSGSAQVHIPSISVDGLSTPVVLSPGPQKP
The experiment in a line: co-IP; endogenous Elk-1 immunoprecipitated with anti-Elk-1 antibody and protein A agarose from SH-SY5Y lysate (RIPA buffer); blots for Aur-A, Aur-B, Cdk1, Plk1; IgG as IP control.

Experiment [2] has as its target T4, Elk-1 transcription factor (endogenous) (human (endogenous in SH-SY5Y and U87)). Nature of the experiment: co-IP; U87 cells arrested with 100 ng/ml nocodazole for 16 hr, released, collected at 0, 30, 60 and 90 min; Elk-1 immunoprecipitated with anti-Elk-1 antibody; blots for Aurora-A, Aurora-B, Cdk1, Plk1.
The target is the same in experiment [3]. The experiment in a line: condition: only 60 or 90 min after release from nocodazole arrest; co-IP; as a2, samples at 60 and 90 min after release from nocodazole arrest (U87 cells).

No constants are given. Whether binding was seen depends on the method and setting. Binding seen in cells or lysates may run through a third protein. Some binding calls cover weakened binding; strength is not graded here. For some assays here: Where a sequence is shown, tags or fusion partners need not be part of it.

As for “Aurora-B (endogenous) (from UniProt Q96GD4 1-344) (enzyme)”, the binding entry is on record as “no binding” with GST-Elk-1 (1-93); “no binding” in the experiment with GST-Elk-1 (349-428); “binds” in the experiment with GST-Elk-1 (1-205); “binds” in experiment [1]; “binds” in experiment [2].
As for “Polo-like kinase-1 (endogenous) (from UniProt P53350 1-603) (enzyme)”, the binding result is given as “no binding” with GST-Elk-1 (1-93); “no binding” with GST-Elk-1 (349-428); “binds” with GST-Elk-1 (1-205); “binds” in experiment [1]; “binds” in experiment [2].

B1: Aurora-A (endogenous) (enzyme, UniProt O14965 1-403)
chain: MDRSKENCISGPVKATAPVGGPKRVLVTQQFPCQNPLPVNSGQAQRVLCPSNSSQRIPLQAQKLVSSHKPVQNQKQKQLQATSVPHPVSRPLNNTQKSKQPLPSAPENNPEEELASKQKNEESKKRQWALEDFEIGRPLGKGKFGNVYLAREKQSKFILALKVLFKAQLEKAGVEHQLRREVEIQSHLRHPNILRLYGYFHDATRVYLILEYAPLGTVYRELQKLSKFDEQRTATYITELANALSYCHSKRVIHRDIKPENLLLGSAGELKIADFGWSVHAPSSRRTTLCGTLDYLPPEMIEGRMHDEKVDLWSLGVLCYEFLVGKPPFEANTYQETYKRISRVEFTFPDFVTEGARDLISRLLKHNPSQRPMLREVLEHPWITANSSKPSNCQNKESASKQS
Take B1: the binding entry with GST-Elk-1 (1-93) was “no binding”; in the experiment with GST-Elk-1 (349-428) it was “no binding”; in the experiment with GST-Elk-1 (1-205), “binds”; in experiment [1], “binds”; in experiment [3], “no binding”; in experiment [2], “binds”.

B2: Serum response factor (endogenous) (protein, UniProt P11831 1-508)
chain: MLPTQAGAAAALGRGSALGGSLNRTPTGRPGGGGGTRGANGGRVPGNGAGLGPGRLEREAAAAAATTPAPTAGALYSGSEGDSESGEEEELGAERRGLKRSLSEMEIGMVVGGPEASAAATGGYGPVSGAVSGAKPGKKTRGRVKIKMEFIDNKLRRYTTFSKRKTGIMKKAYELSTLTGTQVLLLVASETGHVYTFATRKLQPMITSETGKALIQTCLNSPDSPPRSDPTTDQRMSATGFEETDLTYQVSESDSSGETKDTLKPAFTVTNLPGTTSTIQTAPSTSTTMQVSSGPSFPITNYLAPVSASVSPSAVSSANGTVLKSTGSGPVSSGGLMQLPTSFTLMPGGAVAQQVPVQAIQVHQAPQQASPSRDSSTDLTQTSSSGTVTLPATIMTSSVPTTVGGHMMYPSPHAVMYAPTSGLGDGSLTVLNAFSQAPSTMQVSHSQVQEPGGVPQVFLTASSGTVQIPVSAVQLHQMAVIGQQAGSSSNLTELQVVNLDTAHSTKSE
Take B2: the binding result with GST-Elk-1 (1-205) is on record as “binds”.
